Data published in PubChem BioAssay AID1768 (National Center for Advancing Translational Sciences (NCATS), 2009).
Out of some 270,000 compounds screened, about 620 (0.23%) were called active. This list was built around the results that the source calls inconclusive (neither active nor inactive); the mix of calls is not that of the screen. Calls follow the shape of the dose curve; as a rule, active = well fitted inhibition curve with a large enough effect in the polarisation, with a control signal flat (not every such curve was filed as active); inconclusive = small, poorly fitted or top-dose-only effect, or effect the other way, or a change in a side signal; inactive = no such curve, though single readings can be large or run the other way; the % refers to the polarisation. A potency beside an inconclusive call is a rough fit, not a confirmed value. “Side channel” marks fits to a control or component signal instead of the main read-out.

The molecules below were run against Menin (Homo sapiens) (UniProt O00255) (assay: qHTS Assay for Inhibitors Targeting the Menin-MLL Interaction in MLL Related Leukemias: Competition With Texas Red Labeled MLL-derived Mutant Peptide). Settings: fluorescence polarization; FP activity change, negative = inhibition: at 61.6 µM (top of the series).
For FP activity change, negative = inhibition in this document: % of control where 0% means no effect.
Potency is read from the fitted curve at half-maximal effect; tags tell the direction and shape of the fitted curve or compound fluorescence and quenching.

Sequence of UniProt O00255 (O00255 whole entry, looked up): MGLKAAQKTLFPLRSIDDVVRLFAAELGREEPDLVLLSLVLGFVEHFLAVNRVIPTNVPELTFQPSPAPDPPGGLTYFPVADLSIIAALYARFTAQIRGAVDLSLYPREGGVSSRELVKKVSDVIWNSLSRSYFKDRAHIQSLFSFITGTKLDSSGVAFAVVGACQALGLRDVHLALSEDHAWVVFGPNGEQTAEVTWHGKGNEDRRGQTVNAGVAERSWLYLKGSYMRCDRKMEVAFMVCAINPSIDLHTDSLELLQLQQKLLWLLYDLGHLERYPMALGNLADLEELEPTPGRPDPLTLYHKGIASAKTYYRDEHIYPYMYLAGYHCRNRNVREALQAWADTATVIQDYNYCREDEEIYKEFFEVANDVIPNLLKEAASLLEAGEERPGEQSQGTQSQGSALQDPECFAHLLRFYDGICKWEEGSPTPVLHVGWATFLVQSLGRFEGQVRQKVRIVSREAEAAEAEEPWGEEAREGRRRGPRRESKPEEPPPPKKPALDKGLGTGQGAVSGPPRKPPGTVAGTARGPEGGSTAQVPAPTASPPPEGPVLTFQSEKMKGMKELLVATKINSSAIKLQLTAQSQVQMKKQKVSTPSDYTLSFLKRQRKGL

SMILES | Potency | FP activity change, negative = inhibition
COc1ccc(N(CC(=O)NC2CCCCC2)C(=O)c2ccc(C)s2)c(OC)c1 | inconclusive: 39.8 µM [quencher, side channel, single point] | –
CCCC(=O)Nc1nc(C)c(-c2csc(Nc3cc(OC)ccc3OC)n2)s1 | inconclusive: 10 µM [quencher, side channel, partial curve] | –
Cc1ccccc1CN1CCC(C(=O)Nc2ccc(Oc3cccnc3)cc2)CC1 | – | inactive: -9.01%
Cc1cccc(C2c3[nH]c4ccccc4c3CCN2C(=O)c2cc(CC(C)C)nc(C)n2)n1 (stereo unspecified) | inconclusive: 3.98 µM [fluorescent, side channel, full curve, poor fit] | –
Cc1ccc(NC(=O)c2ccc(NCc3ccco3)c([N+](=O)[O-])c2)cc1Cl | inconclusive: 3.55 µM [quencher, side channel, full curve] | –
CCOC(=O)N1CCN(C(=O)CSc2nc3ccccc3c(=O)n2-c2ccccc2)CC1 | inconclusive: 10 µM [inhibitor, partial curve] | –
O=c1c2ccccc2[nH]c(=S)n1Cc1ccccc1Cl | inconclusive: 31.6 µM [quencher, side channel, single point] | –
O=C(O)c1[nH]c2ccccc2c1C(c1cc(Cl)cc([N+](=O)[O-])c1O)c1c(C(=O)O)[nH]c2ccccc12 | inconclusive: 25.1 µM [quencher, side channel, partial curve] | –
c1ccc(CNc2nc(-c3ccc4c(c3)OCO4)nc3ccccc23)cc1 | inconclusive: 14.1 µM [quencher, partial curve] | –
C/C(=N\Nc1cccc(C(F)(F)F)c1)c1ccc(O)cc1 | inconclusive: 17.8 µM [quencher, side channel, partial curve] | –
CCOC(=O)C(CS)NCCN[C@@H](CS)C(=O)OCC (stereo partly specified) | – | inactive: -2.27%
CC(C)CCNC(=O)Cc1c(C(=O)O)[nH]c2ccc(Cl)cc12 | inconclusive: 20 µM [quencher, side channel, partial curve] | –
CCCN1CCc2c(sc(NC(=O)c3ccc(S(=O)(=O)N4CCCC4)cc3)c2C(N)=O)C1 | inconclusive: 39.8 µM [inhibitor, single point] | –
Fc1ccc(C2=CC(c3ccco3)n3ncnc3N2)cc1 (stereo unspecified) | – | inactive: -7.74%
CCOc1ccc(N2CC(C(=O)N3CCCC3)CC2=O)cc1 (stereo unspecified) | inconclusive: 39.8 µM [quencher, side channel, single point] | –
O=S(=O)(c1cc(C(F)(F)F)ccc1Cl)N1CCCCCC1 | inconclusive: 2.82 µM [quencher, side channel, full curve, poor fit] | –
CCOC(=O)CN1C(c2ccc(O)cc2)Nc2ccc(Br)cc2C1c1ccccc1 (stereo unspecified) | inconclusive: 31.6 µM [quencher, side channel, single point] | –
Cc1cccc2cc(CN(CC3CCCO3)C(c3nnnn3Cc3ccco3)C(C)C)c(=O)[nH]c12 (stereo unspecified) | inconclusive: 5.01 µM [inhibitor, single point] | –
O=C(NC(=S)NCCC1=CCCCC1)c1ccc(Br)o1 | – | inactive: 17%

SMILES | Potency | FP activity change, negative = inhibition
N#Cc1c(N)nc(SCC(=O)OCc2ccccc2)c(C#N)c1-c1ccco1 | inconclusive: 20 µM [quencher, side channel, single point] | –
O=C(Nc1ccccc1Cl)c1cc2ccccc2o/c1=N\O | inconclusive: 25.1 µM [fluorescent, side channel, single point] | –
O=C(/C=C/c1ccco1)NC(=S)Nc1ccccc1 | inconclusive: 31.6 µM [quencher, side channel, single point] | –
CC(C)c1c(C(=O)N/N=C/c2cccs2)nnn1-c1nonc1N | inconclusive: 31.6 µM [quencher, side channel, single point] | –
S=C(NCc1ccccc1)Nc1ccc(Oc2ccccc2)cc1 | inconclusive: 17.8 µM [quencher, side channel, single point] | –
CC(=O)Nc1ccc(NC(=O)C2CCC(CNS(=O)(=O)c3cccc4nsnc34)CC2)cc1 (stereo unspecified) | inconclusive: 20 µM [inhibitor, single point] | –
COc1ccccc1Cn1c(=S)[nH]c2cc(C(=O)NCC3CCCO3)ccc2c1=O (stereo unspecified) | – | inactive: -19.1%
O=C(N=C1SCC(=O)N1c1ccccc1Cl)c1ccco1 | inconclusive: 35.5 µM [fluorescent, side channel, single point] | –
COC(=O)N/N=C/c1cn(CCCOc2ccc(C)cc2)c2ccccc12 | inconclusive: 3.16 µM [quencher, side channel, full curve] | –
CCOC(=O)C1(Cc2cccc(OC)c2)CCN(C2CCOCC2)CC1 | inconclusive: 22.4 µM [quencher, side channel, partial curve] | –
CCOC(=O)C1(CCc2ccccc2)CCN(Cc2cc(OC)c(OC)cc2OC)CC1 | inconclusive: 22.4 µM [inhibitor, partial curve] | –
COc1ccc(NC(=S)NC(NC(=O)c2ccc(Cl)cc2Cl)C(Cl)(Cl)Cl)c([N+](=O)[O-])c1 (stereo unspecified) | inconclusive: 11.2 µM [quencher, side channel, partial curve] | –
COc1cc(OC)c(N(C)S(=O)(=O)c2cccc(C(=O)OCC(=O)c3c[nH]c4ccccc34)c2)cc1Cl | inconclusive: 2 µM [quencher, side channel, full curve, poor fit] | –
COCC(C)NC(=O)c1cccc(Cl)c1 (stereo unspecified) | – | inactive: 1.75%
O=C(Nc1ccc2nc(-c3ccc(Br)o3)[nH]c2c1)c1cccs1 | inconclusive: 31.6 µM [quencher, partial curve] | –
O=c1c2ccccc2c(C=Nc2cccc(O)c2)c(O)n1-c1ccc2c(c1)OCO2 | inconclusive: 7.08 µM [quencher, side channel, full curve] | –
CC(C)(C)c1csc(N/N=C/c2ccc(O)cc2)n1 | inconclusive: 25.1 µM [quencher, side channel, partial curve] | –
NS(=O)(=O)c1ccc(NC(=O)CCCCC(=O)Nc2ccc(S(N)(=O)=O)cc2)cc1 | inconclusive: 28.2 µM [fluorescent, side channel, single point] | –
CC(C)Sc1nsc2nc(=O)c(/C=C3\C=Nc4ccccc43)c(N)n12 | inconclusive: 22.4 µM [quencher, side channel, partial curve] | –

SMILES | Potency | FP activity change, negative = inhibition
COc1cc(/C=C2/C(=O)NN(c3ccc(Cl)cc3)C2=O)ccc1OC(=O)c1ccco1 | inconclusive: 20 µM [quencher, side channel, partial curve] | –
COc1cccc(Nc2ncc3nc(-c4ccc(F)cc4)c(=O)n(C)c3n2)c1 | inconclusive: 2.82 µM [quencher, side channel, full curve] | –
COC(=O)c1cc(NC(=O)Cn2c(=O)cnc3ccccc32)cc(C(=O)OC)c1 | inconclusive: 25.1 µM [inhibitor, single point] | –
O=C(OCC(=O)c1c[nH]c2ccccc12)c1cc(Br)ccc1O | inconclusive: 5.62 µM [quencher, side channel, partial curve] | –
CCC(=O)N1CCN(c2nc(-c3ccccc3)c3c(c2C#N)CCCC3)CC1 | inconclusive: 4.47 µM [fluorescent, side channel, full curve, poor fit] | –
COc1ccc(NC(=O)c2c(Cl)cnn2C)c(C)c1 | inconclusive: 35.5 µM [fluorescent, side channel, single point] | –
CCOc1ccc2[nH]c(=O)c(CN(CC3CCCN3CC)C(=O)NCc3ccccc3)cc2c1 (stereo unspecified) | inconclusive: 31.6 µM [inhibitor, single point] | –
CC(=O)c1ccc(S(=O)(=O)Nc2ccc(-c3ccc4nnc(C)n4n3)cc2)cc1 | inconclusive: 28.2 µM [quencher, side channel, partial curve] | –
CCCCNS(=O)(=O)c1ccc(NC(=O)C2c3ccccc3Oc3ccccc32)cc1 | inconclusive: 39.8 µM [inhibitor, single point] | –
FC(F)(F)c1ccc(NC(=S)NCc2ccccc2)cc1 | inconclusive: 14.1 µM [quencher, side channel, partial curve] | –
CC/C(=N\Nc1ccc([N+](=O)[O-])cc1[N+](=O)[O-])c1ccc(O)cc1 | inconclusive: 3.55 µM [quencher, full curve] | –
CCOC(=O)/C(=C/c1ccc(OC(=O)c2ccncc2)cc1)C(C)=O | inconclusive: 12.6 µM [inhibitor, partial curve, poor fit] | –
CC(C)(C)N(Cc1ccccc1)C(=O)CN1C(=O)c2ccccc2C1=O | inconclusive: 5.01 µM [inhibitor, single point] | –
CCC(c1nnnn1CCOC)N(Cc1cc2cc(C)c(C)cc2[nH]c1=O)CC1CCCO1 (stereo unspecified) | inconclusive: 7.08 µM [fluorescent, side channel, partial curve] | –
Cc1cc(=O)oc2cc(OCC(=O)NCCc3ccccc3)ccc12 | inconclusive: 28.2 µM [fluorescent, side channel, single point] | –
CC(=O)c1ccc(N2CCN(C(=O)c3nn(Cc4ccccc4)c(=O)c4ccccc34)CC2)cc1 | – | inactive: 2.34%
COc1ccc(OC)c(/C=C2\Oc3cc(OCC(=O)N4CCC(C(=O)O)CC4)ccc3C2=O)c1 | inconclusive: 35.5 µM [quencher, side channel, single point] | –
CCCCNC(=O)[C@H]1N2C(=O)c3c(ccc(OC)c3OC)C2SC1(C)C (stereo partly specified) | inconclusive: 14.1 µM [inhibitor, partial curve] | –
